# The other results are listed elsewhere or left out.
# System: PfHDP1 homeodomain (GST-tagged)
# Experiment: gcPBM binding intensity (ln(normalized median fluorescence intensity)); higher = stronger DNA binding
# Outline: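 An Agilent 4 × 180k array carrying primer-extended double-stranded 36-bp intergenic genomic probes and negative controls received GST-tagged P. falciparum DNA-binding domains expressed in E. coli, about 25 μg on average, for 1 h. The binding buffer contained 1× PBS, 1% milk, 0.2 mg/ml BSA, 0.5% salmon testes DNA and 0.03% Triton X-100. Binding intensity is the top Masliner-normalised natural-log median intensity across replicate spots of either probe orientation, read after Alexa488 anti-GST antibody staining and a 488 nm scan.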
row,Sequence,gcPBM binding intensity (ln)
1,CACGAACACAAACACAAACACACATCATATATATAT [CACACA_site1322],8.56
2,AATATATATAAAAAGGGAAAAATATATAAATAGATA [XGTACX_negctrl_site52],6.4
3,CATAATATGACATACACACACAAAAAAAAAAAAATA [CACACA_site1285],6.32
4,AACCGGGCCTAAGATGTAATGCCTTAGCCTATAAAA [CACACA_negctrl_site479],5.57
5,TTTATATTAAAATATTGTACGGACATTATTTTGTAA [XGTACX_site8128],6.3
6,ATAAAATATATGAAGACACACATAACATCATATTTT [CACACA_site3144],6.18
7,TTTGTTGTTTGGAGATGTACATATTTTACACTTTTT [XGTACX_site5965],6.93
8,AAAAAATTAATAAAAACACACAAAAAAAATAAACAA [CACACA_site1907],6.94
9,ATTTCACAGAGACACACACACAATATATTTCCTTTT [CACACA_site7773],7.08
10,TAAACATAATATTTAACACACATGAAGATGTATATT [CACACA_site1036],5.97
11,ATAAATATTTACAAAAGTACACATAACTTTAGATAT [XGTACX_site1685],6.28
12,ACAATCCACAGGGGCGCACACATATAAGCAGTATAT [CACACA_site3817],6.86
13,CACCATGATACATACACACAGACATATACGCATTCA [CACACA_site1008],6.87
14,GTTTTGGCTAACTATTCACACATTAAAATATTACCA [CACACA_site5016],6.73
15,TATGCTACAAGGAGAACACACAATTGCCACTTTTGG [CACACA_site2166],6.44
16,AACCATTATTTCTCTACACACATTTATGTCATTTAC [CACACA_site1499],7.04
17,AAAATTAGGTATATATGTACATATATAAATATATAT [XGTACX_site3555],6.8
18,TCCTTATATGGGCACACACACACAATAAAATGAAAA [CACACA_site1030],7.06
19,GTTTATATTAAACAAACACACACATATATATATATA [CACACA_site8749],9.16

row,Sequence,gcPBM binding intensity (ln)
1,TAAATATGCTCACAGATGCACTAACACATTTTTATA [GTGCAC_site9997],10.4
2,TTTTATACATAAATGTGTACGTATATATAATGAATT [XGTACX_site2762],6.62
3,TATTGTAGAGGCAAAAGTACACATTTAATAATTTCC [XGTACX_site1151],6.26
4,TACATGCATTTCTCATGTACATAATTTTCCCATATT [XGTACX_site5158],6.61
5,ATAAATTAAAGACACACACACATCTGGATACCCCTA [CACACA_site7546],6.9
6,TTATATTATATATATAGTACACATGTAATATTTCAA [XGTACX_site1791],6.65
7,ATCTATATAATATATACACACAAATATACAAAAAAA [CACACA_site1013],7.13
8,TTATTAATATATAAATGTACATATACAATACATAAA [XGTACX_site5571],6.41
9,TATTTAAGAGTATGAACACACATCATACACATATAA [CACACA_site3617],6.43
10,TATGTTTGTGTATATATTTATTTTTATGTAATTATA [GTGCAC_negctrl_site219],6.92
11,ATTTAAAAATAAAGAACACACATATGTAAAATATAT [CACACA_site3754],6.73
12,CAAAATATAACATCATCACACACATATACTTTATAT [CACACA_site8292],6.62
13,AAAAAAATTAGACACACACACACATATAAATATGTA [CACACA_site6618],6.64
14,ATTTAGAATGCGTATACACACATATATAGATTTGCT [CACACA_site626],6.54
15,AATAGAACTATTACACGTACAGAACATGAATTAGTT [XGTACX_site7518],6.1
16,TGTTATATATGTAATTGTACACTTATACAAAATTAT [XGTACX_site6350],7.03
17,TTTTTTAATTAGTACAAACACACATATACAGACAAA [CACACA_site2564],7.23
18,TCTTTTACAAAAGCTATAACATTCACCACATTATAA [GTGCAC_negctrl_site133],6.37
19,TATATATATATATAAACACACATAAATATAAATATA [CACACA_site1121],9.04

row,Sequence,gcPBM binding intensity (ln)
1,GTTAATGTGGTTACTTGTACATATTAACGTCTTTTT [XGTACX_site2617],6.42
2,AAAAAAAAAATATACACACACATATATATATATATA [CACACA_site3404],9.35
3,ATATATATATTTTATGCATGTTCATTTTCTATATTT [TGCATGCA_site442],7.94
4,TCAACACACGTGGAATGTACTTTAGTATAAGAATTC [XGTACX_site7842],6.38
5,TAAATATATTTCATGACATGCAACTTGTTTTTTTGT [TGCATGCA_site456],6.91
6,ATAAAAAAAAGACACACACACATATATATATATATA [CACACA_site3073],9.37
7,GATTCATTTCATAATACACACAACAAATATTTCAAA [CACACA_site120],6.83
8,TCGACAATTTTATAAAGTACTTATTAGAAATATGAA [XGTACX_site7133],6.22
9,CCATTTAAAACATTTTGTACTTATTTTACATTTCTG [XGTACX_site4270],6.57
10,AAACAAATAAAATTTATTAAAAAGGTCATATTATTA [CACACA_negctrl_site85],6.12
11,AGAAAAAAAAATTATACATGCATATACGTTTATTTT [TGCATGCA_site529],6.17
12,TTTCTTACAACAACAACAAAAAAAAATAAATAAAAT [GTGCAC_negctrl_site711],6.56
13,ATATTTTATATTTCTTGTACATATATTTGTAGATAT [XGTACX_site1140],6.54
14,TATTATTTTTTTATTCTATTAAAAAGAAAAAAATGA [CACACA_negctrl_site407],5.92
15,AATTTATTTTTAAAAAGTACATACTTAAGAAAACGA [XGTACX_site3660],6.85
16,ATATATATATATATATGTACACACATCAATCATATT [XGTACX_site4005],9.39
17,AGAGTACAAGTAAATACACACATATAGATGAAAATA [CACACA_site6635],6.88
18,AAGAAAACTTAAAATAAAAGCATATTTTATCTTACA [TGCATGCA_negctrl_site366],5.77

# Source: the supplement of paper PMC11417369
